Source: PMC4336329 (PLoS ONE, 2015)
Hit rate of the full screen: of about 310,000 compounds, about 14,000 (4.5%) showed an effect of 50% or more. The effect is printed as a negative number. The list shows a part of the results.

target: human ether-à-go-go-related gene (hERG) potassium channel (human, UniProt Q12809); assay: primary screen, population patch clamp on CHO cells stably expressing hERG
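Also: peak tail current of the secondary pulse compared with the same well before compound.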

Chain of human ether-à-go-go-related gene (hERG) potassium channel (Q12809 whole entry, looked up): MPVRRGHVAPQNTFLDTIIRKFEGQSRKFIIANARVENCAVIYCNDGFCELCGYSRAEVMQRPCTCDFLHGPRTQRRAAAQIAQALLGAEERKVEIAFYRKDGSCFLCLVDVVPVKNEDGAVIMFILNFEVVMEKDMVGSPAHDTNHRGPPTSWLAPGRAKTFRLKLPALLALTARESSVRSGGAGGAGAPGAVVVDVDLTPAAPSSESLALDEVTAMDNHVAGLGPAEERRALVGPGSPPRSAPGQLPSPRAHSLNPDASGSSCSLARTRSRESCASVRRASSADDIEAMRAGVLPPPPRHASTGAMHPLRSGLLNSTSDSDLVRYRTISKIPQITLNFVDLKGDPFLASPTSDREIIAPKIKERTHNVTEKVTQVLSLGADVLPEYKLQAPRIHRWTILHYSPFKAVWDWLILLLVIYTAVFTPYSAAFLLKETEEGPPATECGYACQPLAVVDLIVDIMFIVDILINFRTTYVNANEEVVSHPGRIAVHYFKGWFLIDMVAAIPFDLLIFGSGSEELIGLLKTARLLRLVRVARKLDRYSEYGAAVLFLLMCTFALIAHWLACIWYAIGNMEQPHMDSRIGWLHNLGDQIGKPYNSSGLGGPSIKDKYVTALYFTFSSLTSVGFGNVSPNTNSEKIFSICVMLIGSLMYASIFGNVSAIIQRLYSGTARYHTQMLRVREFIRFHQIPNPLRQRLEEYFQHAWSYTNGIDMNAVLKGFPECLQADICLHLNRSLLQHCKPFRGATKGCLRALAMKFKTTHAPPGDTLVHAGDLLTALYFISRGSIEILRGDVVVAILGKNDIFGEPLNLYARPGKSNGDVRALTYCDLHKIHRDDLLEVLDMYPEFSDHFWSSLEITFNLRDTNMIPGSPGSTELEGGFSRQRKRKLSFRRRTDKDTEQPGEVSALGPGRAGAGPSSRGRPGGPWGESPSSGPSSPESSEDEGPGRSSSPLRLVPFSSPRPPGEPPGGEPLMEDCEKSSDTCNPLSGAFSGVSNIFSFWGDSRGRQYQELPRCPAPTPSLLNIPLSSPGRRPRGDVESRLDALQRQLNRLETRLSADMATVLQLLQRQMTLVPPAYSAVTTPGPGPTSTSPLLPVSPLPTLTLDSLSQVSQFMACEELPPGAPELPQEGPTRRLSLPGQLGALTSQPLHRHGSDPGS

Row | Structure (SMILES) | hERG current change (%, negative = inhibition) at 10uM
1 | N/C(Cc1ccc([N+](=O)[O-])cc1)=N\OC(=O)C(c1ccccc1)c1ccccc1 | -66.9%
2 | COc1ccc(CCNC(=O)COc2cc(C)cc3oc(=O)cc(C)c23)cc1OC | 1.42%
3 | CSc1nc2ncc3c(n2n1)CC(C)(C)CC3=O | -16.7%
4 | Cc1ccc(S(=O)(=O)CCC(=O)OCC(=O)NC(C)c2ccccc2)cc1 (centres unmarked) | 6.54%
5 | CN(C)CCCNC(=O)c1ccc(Cl)c(S(=O)(=O)N(C)c2ccccc2)c1.Cl | -35%
6 | CC12CN(Cc3ccccc3)CC(C)(CN(Cc3ccccc3)C1)C2=NO | -25.5%
7 | CCN1CCN(c2nc(-c3ccncc3)nc3ccccc23)CC1 | -77.8%
8 | CC1CCC2C(C)C(=O)OC3OC4(C)CCC1C32OO4 (centres unmarked) | 9.69%
9 | O=[N+]([O-])c1ccc(-c2ncc(-c3ccc(Br)cc3)o2)cc1 | 14.1%
10 | CCOc1ncccc1C(=O)OCc1ccc(C(=O)OC)o1 | 5.35%
11 | Cc1cc(C(=O)COC(=O)Cc2ccc(Br)cc2)c(C)n1C | 8.24%
12 | CCC(C)NC(=O)C(CCSC)NC(=O)c1ccccc1 (centres unmarked) | 10.4%
13 | CCc1nccn1C(=O)c1cnn2c(C(F)F)cc(-c3ccccc3)nc12 | 10.8%
14 | CCCC1C(c2ccc(OC)cc2)C(C#N)(C#N)C2(C#N)CC1(N)NC2=O (centres unmarked) | -6.78%
15 | CC(C)NS(=O)(=O)c1ccc(OCC(=O)NCc2ccco2)cc1 | 0.267%
16 | CSc1ncccc1C(=O)N1CCN(S(=O)(=O)c2cc(C)ccc2C)CC1 | -11.3%
17 | CC(C)CN1CN(Cc2ccco2)CNC1=S | -9.58%
18 | Cc1ccn(C(C)CC(=O)Nc2ccc(-c3ccno3)cc2)n1 (centres unmarked) | 5.38%
19 | O=C(CSc1nnc(SCc2ccc(Cl)cc2)s1)N1CCOCC1 | 5.64%
20 | COc1cccc(CNC(=O)CN(C)S(=O)(=O)c2cccc3cccnc23)c1 | 3.54%
21 | CCCN(CCC)CCNC(=S)Nc1ccc2nc3n(c(=O)c2c1)CCCCC3 | -17%
22 | CCCC(CCC)C(=O)NC1CCN(Cc2ccccc2)CC1.Cl | -7.76%

Row | Structure (SMILES) | hERG current change (%, negative = inhibition) at 10uM
23 | CN(C)CCCN1C(=O)C2CCc3[nH]c4ccccc4c3C2C1=O (centres unmarked) | 15.3%
24 | CCCC(CCC(=O)Nc1cccc([N+](=O)[O-])c1)C(=O)O (centres unmarked) | -0.0899%
25 | O=C1c2cccc(OCc3ccc(F)cc3)c2CCN1Cc1ccc(F)cc1 | 0.623%
26 | Cc1ccccc1OCC(=O)Nc1ccc2c(c1)OCO2 | -7.9%
27 | N/C(=N\OC(=O)Cc1ccccc1[N+](=O)[O-])c1ccncc1 | 3.96%
28 | COc1ccc(C(CNC(=O)c2cc(C)on2)N(C)C)cc1 (centres unmarked) | 22.1%
29 | O=C(NC1CC1)c1ccc(CSCc2cccc(F)c2)o1 | -18.3%
30 | COc1ccc(C(CNC(=O)c2ccc(N3CCCC3=O)cc2)N(C)C)cc1 (centres unmarked) | -2.32%
31 | CCC(=O)Nc1ccc(NC(=O)CSc2nnc(C(C)C)n2C)cc1 | 11.8%
32 | O=C(NCCN1C(=O)CSC1=O)c1ccccc1 | 16.5%
33 | CC(C)(C)NC(=O)c1oc2ccccc2c1COc1ccccc1 | 13.6%
34 | FC(F)(F)c1ccc(/C=N/n2c(C3CCCCC3)n[nH]c2=S)cc1 | 11.8%
35 | CCOC(=O)[C@@H]1[C@H]2COc3ccc(Br)cc3[C@@H]2N2C(=O)N(c3ccc(Br)cc3)C(=O)[C@]12C | 13%
36 | COc1ccc(NC(=O)C(CC(C)C)NC(=O)C2CCC(C)CC2)c(OC)c1 (centres unmarked) | -5.41%
37 | Nc1cc(Cl)nc(N/N=C/c2ccc([N+](=O)[O-])cc2)n1 | 0.056%
38 | CCn1c(C(c2ccccc2)c2ccccc2)n[nH]c1=S | 9.15%
39 | CC(=O)c1ccc(NC(=O)C2CCN(S(=O)(=O)c3cccc4cccnc34)CC2)cc1 | -0.886%
40 | O=C1CC(N2CCCCC2)C(=O)N1c1ccccc1 (centres unmarked) | -3.42%
41 | CC(C)(C)c1cc[n+](-c2[nH]c(=O)sc2/C=N/N=C(\[O-])c2ccccc2)cc1 | 10.1%
42 | O=C(CSc1nnc2c(Cl)cc(C(F)(F)F)cn12)NCc1ccc(F)cc1 | -4.27%
43 | CCOC(=O)N1C(=O)C2(CCCCC2)N(c2ccccc2Cl)C1=S | -7.73%
44 | O=CN1CCN(C(=O)c2cccc3c2-c2ccccc2C3=O)CC1 | -12.9%

Row | Structure (SMILES) | hERG current change (%, negative = inhibition) at 10uM
45 | CCOc1cc(/C=N\NC(=O)c2ccc(C)nc2)ccc1OC(=O)c1ccc(F)cc1 | 15.4%
46 | CCN(CC)S(=O)(=O)c1ccc(-c2nnc(SCC(=O)Nc3ccc4c(c3)OCO4)o2)cc1 | 7.11%
47 | CN(C)Cc1c(O)ccc2c(=O)c(-c3ccccc3Cl)coc12 | 9.82%
48 | Cc1cccn2c(=O)c(/C=C(\C#N)C(=O)NCc3ccco3)c(N3CCCCCC3)nc12 | -36.5%
49 | CCOc1ccc(/C(O)=C2\C(=O)C(=O)N(CCOCCO)C2c2ccccc2OC)cc1 (centres unmarked) | 2.11%
50 | CCc1ccc2oc(C(=O)NCc3ccc(S(N)(=O)=O)cc3)c(C)c2c1 | 15%
51 | C/C(=N/NC(=O)c1ccco1)c1cccc(NC(=O)c2ccc(C)s2)c1 | 1.1%
52 | Cc1csc(NC(=O)CSc2ncnc3c2cnn3-c2ccccc2Cl)n1 | -17.4%
53 | Cc1oc2ccc(OCc3ccc(Br)cc3)cc2c1C(=O)O | 44.2%
54 | CC(CCc1ccccc1)NC(=O)COC(=O)c1cccc2ccccc12 (centres unmarked) | 1.44%
55 | O=C(O)c1cc(S(=O)(=O)NC23CC4CC(CC(C4)C2)C3)ccc1Cl | 14%
56 | Cc1ccc(S(=O)(=O)N2CCOCC2)cc1C(=O)NCc1ccco1 | -4.95%
57 | COC(=O)[C@@]12CCCN1[C@H](c1ccc(-c3cccc(Cl)c3)c(OC)c1)[C@H]1C(=O)N(C)C(=O)[C@H]12.O=C(O)C(F)(F)F | -39.8%
58 | COc1ccc(OCCCC(=O)Nc2ccc(S(=O)(=O)N3CCOCC3)cc2)cc1 | 0.442%
59 | COc1ccc(CC(=O)N(C)C2CCCCC2)cc1S(=O)(=O)N1CCOCC1 | 9.3%
60 | O=S(=O)(c1ccc(Cl)cc1)N1CCN(c2ccccn2)CC1 | -4.62%
61 | CCOC(=O)c1c(/N=C/c2cccc([N+](=O)[O-])c2O)sc2c1CCC2 | 4.23%
62 | O=C(c1cc2c(s1)CCCC2)N1CCN(C(=O)C2CCCO2)CC1 (centres unmarked) | -1.97%
63 | CC/C(=N\Nc1ccccc1)c1c(O)n(C)c(=O)n(C)c1=O | 3.43%
64 | Cc1ccnn1CCC(=O)N1CCCC(CCC(=O)NCc2ccccc2F)C1 (centres unmarked) | -6.16%
65 | O=C(c1cc(F)ccc1F)C1CCCN(C(=O)CCCN2CCCCC2=O)C1 (centres unmarked) | -1.03%
66 | CC(C)COc1ccc(C/C(N)=N/n2cnnc2)cc1 | 30.4%

Row | Structure (SMILES) | hERG current change (%, negative = inhibition) at 10uM
67 | O=C(Nc1cnn(C23CC4CC(CC(C4)C2)C3)c1)c1cnn2cccnc12 | -9.81%
68 | COC(=O)c1ccc(COC(=O)C23CC4CC(CC(O)(C4)C2)C3)o1 | -0.467%
69 | Cc1ccc(-c2nnc(N3CCN(C(=O)CN4CCOCC4)CC3)c3ccccc23)cc1 | -31.5%
70 | Cc1ccccc1C(=O)OCn1nnc2ccccc2c1=O | -2.01%
71 | Cn1c(O)c(C(=Nc2ccccc2)SCc2ccccc2Cl)c(=O)n(C)c1=O | 21.5%
72 | COc1ccc(-c2nc(-c3ccc(Br)o3)no2)cc1 | 13%
73 | Nc1nc(SCC(=O)Nc2ccccc2Sc2ccccc2)n[nH]1 | -6.57%
74 | Cc1ccn2c(NC(=O)C(C)(C)Oc3ccc(Cl)cc3)c(-c3cccs3)nc2c1 | -10.3%
75 | CC(=O)c1ccc(NC(=S)NCC(c2ccco2)N2CCCC2)cc1 (centres unmarked) | 5.22%
76 | N#Cc1ccccc1NC(=O)Nc1ccc(Cl)cc1 | 1.16%
77 | O=C(CN1CCC(NC(=O)C2CCCCC2)CC1)NCc1ccco1 | -3.83%
78 | Cc1ccccc1N=Cc1c(O)n(-c2nccs2)c(=O)c2ccccc12 | -0.537%
79 | Cc1cc(=O)oc2c3c(cc(OCC(=O)NCC(=O)O)c12)OC(C)(C)CC3 | 19%
80 | COCCN1C(=O)N[C@@H](CCc2ccccc2)[C@@H](C(=O)OC)[C@H]1C | 2.15%
81 | CN(C)CCCN(C(=O)c1ccc(S(=O)(=O)N2CCc3ccccc32)cc1)c1nc2c(Cl)cccc2s1.Cl | -27.6%
82 | S=c1[nH]nc(-c2ccncc2)n1/N=C/c1cn(-c2ccccc2)nc1-c1ccccc1 | 8.27%
83 | Nc1nonc1-n1nnc(C(=O)N/N=C/c2ccc3c(c2)OCO3)c1CSc1ccccc1 | 18.9%
84 | COc1ccc(Cl)cc1NC(=O)CN(C)C(=O)c1ccc2c(c1)CC(c1ccccc1)OC2=O (centres unmarked) | -41.8%
85 | O=C1NC2(CCCCCC2)C(=O)N1CCS(=O)(=O)Oc1ccccc1 | 1.12%
86 | CCOC(=O)c1nc(NCc2ccccc2)c2ccccc2n1 | -20.6%
